These are yes or no findings as the source states them, for the method shown. Some entries that bind do so weakly or less than the wild type. Sequences can lack the tags named with a protein.
Assays:
Experiment in all cases: two-hybrid; KAR4-GBD alleles with IME4-GAD in PJ69-4 diploids; 24 hours in meiosis-inducing conditions, then 10-fold serial dilutions on SC-HIS and SC-ADE (HIS3 and ADE2 reporters); graded ++++ to -
[1] = biological target: T1, Kar4p W156G fused to the Gal4p DNA-binding domain (S. cerevisiae) (UniProt P25583)
T1 sequence: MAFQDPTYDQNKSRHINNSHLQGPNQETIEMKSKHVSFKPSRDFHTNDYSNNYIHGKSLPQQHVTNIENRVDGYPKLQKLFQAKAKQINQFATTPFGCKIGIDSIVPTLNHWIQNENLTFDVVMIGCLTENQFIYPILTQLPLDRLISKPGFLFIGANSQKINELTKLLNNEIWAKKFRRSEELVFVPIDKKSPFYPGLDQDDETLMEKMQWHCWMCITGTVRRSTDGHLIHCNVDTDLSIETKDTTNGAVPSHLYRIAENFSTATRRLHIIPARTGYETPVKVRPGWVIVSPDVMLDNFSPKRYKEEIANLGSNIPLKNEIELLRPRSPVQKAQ

[2] = biological target: T2, Kar4p A310Stop fused to the Gal4p DNA-binding domain (S. cerevisiae) (UniProt P25583)
T2 sequence: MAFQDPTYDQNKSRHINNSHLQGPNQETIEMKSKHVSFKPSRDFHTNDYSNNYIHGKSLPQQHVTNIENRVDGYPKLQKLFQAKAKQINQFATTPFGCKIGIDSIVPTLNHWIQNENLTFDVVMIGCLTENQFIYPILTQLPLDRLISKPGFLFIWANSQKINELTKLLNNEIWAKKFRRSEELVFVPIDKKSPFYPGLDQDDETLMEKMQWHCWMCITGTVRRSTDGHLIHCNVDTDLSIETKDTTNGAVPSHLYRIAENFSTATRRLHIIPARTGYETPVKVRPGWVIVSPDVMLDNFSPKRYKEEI

[3] = biological target: T3, Kar4p P293L fused to the Gal4p DNA-binding domain (S. cerevisiae) (UniProt P25583)
T3 sequence: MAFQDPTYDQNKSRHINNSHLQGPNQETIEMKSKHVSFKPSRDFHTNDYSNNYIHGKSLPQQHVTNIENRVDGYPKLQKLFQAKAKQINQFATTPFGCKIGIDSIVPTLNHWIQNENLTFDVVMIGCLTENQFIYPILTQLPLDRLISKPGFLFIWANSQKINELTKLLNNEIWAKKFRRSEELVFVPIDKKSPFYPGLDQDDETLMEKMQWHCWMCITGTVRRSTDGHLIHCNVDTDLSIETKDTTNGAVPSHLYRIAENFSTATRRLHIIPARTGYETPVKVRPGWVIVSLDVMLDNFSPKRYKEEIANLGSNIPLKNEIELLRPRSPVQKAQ

[4] = biological target: T4, Kar4p ΔP281V282 fused to the Gal4p DNA-binding domain (S. cerevisiae) (UniProt P25583)
T4 sequence: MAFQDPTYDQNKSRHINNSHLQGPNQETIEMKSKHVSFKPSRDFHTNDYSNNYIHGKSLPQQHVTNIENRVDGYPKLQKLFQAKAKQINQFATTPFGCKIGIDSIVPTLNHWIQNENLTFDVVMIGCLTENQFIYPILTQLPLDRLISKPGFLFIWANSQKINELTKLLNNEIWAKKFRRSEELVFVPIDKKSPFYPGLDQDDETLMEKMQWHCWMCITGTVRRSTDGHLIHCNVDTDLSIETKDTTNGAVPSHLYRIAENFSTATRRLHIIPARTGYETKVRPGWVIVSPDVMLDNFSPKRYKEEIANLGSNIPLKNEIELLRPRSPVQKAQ

[5] = biological target: T5, Kar4p M207R fused to the Gal4p DNA-binding domain (S. cerevisiae) (UniProt P25583)
T5 sequence: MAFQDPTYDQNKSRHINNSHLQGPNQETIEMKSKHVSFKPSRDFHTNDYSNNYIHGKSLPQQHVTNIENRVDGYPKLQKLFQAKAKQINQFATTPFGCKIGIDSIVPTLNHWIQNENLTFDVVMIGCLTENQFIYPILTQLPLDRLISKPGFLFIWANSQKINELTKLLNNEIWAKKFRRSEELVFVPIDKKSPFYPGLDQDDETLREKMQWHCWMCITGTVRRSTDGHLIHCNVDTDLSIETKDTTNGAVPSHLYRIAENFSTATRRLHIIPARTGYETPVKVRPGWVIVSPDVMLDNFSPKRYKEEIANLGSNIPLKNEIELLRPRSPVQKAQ

[6] = biological target: T6, Kar4p A85P fused to the Gal4p DNA-binding domain (S. cerevisiae) (UniProt P25583)
T6 sequence: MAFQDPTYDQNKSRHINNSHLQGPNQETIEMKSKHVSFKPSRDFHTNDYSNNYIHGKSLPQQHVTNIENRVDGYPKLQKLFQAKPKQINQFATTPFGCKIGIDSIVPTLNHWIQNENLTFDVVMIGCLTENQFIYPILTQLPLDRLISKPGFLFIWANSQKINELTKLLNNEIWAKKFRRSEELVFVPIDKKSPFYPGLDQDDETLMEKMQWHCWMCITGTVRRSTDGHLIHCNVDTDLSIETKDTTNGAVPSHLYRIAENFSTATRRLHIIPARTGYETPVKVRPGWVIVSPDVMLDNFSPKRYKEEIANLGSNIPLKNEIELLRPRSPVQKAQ

B1: Ime4p fused to the Gal4p activating domain (protein, UniProt P41833 1-600)
chain: MINDKLVHFLIQNYDDILRAPLSGQLKDVYSLYISGGYDDEMQKLRNDKDEVLQFEQFWNDLQDIIFATPQSIQFDQNLLVADRPEKIVYLDVFSLKILYNKFHAFYYTLKSSSSSCEEKVSSLTTKPEADSEKDQLLGRLLGVLNWDVNVSNQGLPREQLSNRLQNLLREKPSSFQLAKERAKYTTEVIEYIPICSDYSHASLLSTSVYIVNNKIVSLQWSKISACQENHPGLIECIQSKIHFIPNIKPQTDISLGDCSYLDTCHKLNTCRYIHYLQYIPSCLQERADRETASENKRIRSNVSIPFYTLGNCSAHCIKKALPAQWIRCDVRKFDFRVLGKFSVVIADPAWNIHMNLPYGTCNDIELLGLPLHELQDEGIIFLWVTGRAIELGKESLNNWGYNVINEVSWIKTNQLGRTIVTGRTGHWLNHSKEHLLVGLKGNPKWINKHIDVDLIVSMTRETSRKPDELYGIAERLAGTHARKLEIFGRDHNTRPGWFTIGNQLTGNCIYEMDVERKYQEFMKSKTGTSHTGTKKIDKKQPSKLQQQHQQQYWNNMDMGSGKYYAEAKQNPMNQKHTPFESKQQQKQQFQTLNNLYFAQ
[1]
  binding: no binding
[2]
  binding: binds
[3]
  binding: no binding
[4]
  binding: no binding
[5]
  binding: binds
[6]
  binding: binds

From paper PMC10470960
